About 65 (0.1%) of roughly 45,000 compounds were called active. The call rests on the fitted dose curve; in most records, active means well fitted activation curve with a large enough effect; inconclusive means small, poorly fitted or top-dose-only effect; inactive means no such curve, though single readings can be large or run the other way. The list shows a part of the results.
molecular target: Galactocerebrosidase (Homo sapiens) (UniProt P54803); assay: A Novel Cell-Based Assay to Identify Small Molecules for B -Galactocerebrosidase; conditions: 145M-Twi-hGALC-G270D cells, HMU-beta-Gal fluorescence, 48 h; series mostly up to 57.5 µM; activation: at the top concentration; further: 0% is about no effect; nearly all actives have a fitted effect of over 65% in size
Outline: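 qHTS, 1536-well; 145M-Twi-hGALC-G270D cells (WT line also made) in DMEM/F12 + 10% FBS; compound incubation on live cells; HMU-β-gal 0.1 mM final, pH 5.2, NaTC; carbonate stop; fluorescence increase = enhanced residual activity.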

Sequence of UniProt P54803 (P54803 whole entry, looked up): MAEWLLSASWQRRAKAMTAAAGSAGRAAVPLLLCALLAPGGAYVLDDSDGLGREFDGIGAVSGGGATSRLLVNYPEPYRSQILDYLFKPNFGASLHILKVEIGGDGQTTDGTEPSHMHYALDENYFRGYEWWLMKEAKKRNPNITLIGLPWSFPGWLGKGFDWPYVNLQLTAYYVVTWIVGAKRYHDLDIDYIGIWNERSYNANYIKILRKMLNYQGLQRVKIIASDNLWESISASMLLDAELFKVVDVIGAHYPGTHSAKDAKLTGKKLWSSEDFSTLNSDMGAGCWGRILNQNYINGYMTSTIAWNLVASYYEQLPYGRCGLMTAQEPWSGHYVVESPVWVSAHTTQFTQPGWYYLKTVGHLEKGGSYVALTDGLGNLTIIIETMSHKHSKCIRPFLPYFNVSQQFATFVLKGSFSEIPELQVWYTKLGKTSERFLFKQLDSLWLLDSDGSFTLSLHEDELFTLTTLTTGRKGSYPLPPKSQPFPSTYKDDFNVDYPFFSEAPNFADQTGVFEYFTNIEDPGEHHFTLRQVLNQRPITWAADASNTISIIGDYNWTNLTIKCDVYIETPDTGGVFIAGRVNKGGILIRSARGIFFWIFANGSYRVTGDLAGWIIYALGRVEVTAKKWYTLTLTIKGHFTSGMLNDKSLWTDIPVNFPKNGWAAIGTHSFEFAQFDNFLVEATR

| SMILES | activation |
| --- | --- |
| Cc1ccc2c(=O)cc(C(=O)Nc3ccc(S(=O)(=O)N4CCCC(C)C4)cc3)oc2c1C (stereo not drawn) | inactive: -15.7% |
| CC(C)Cn1c(SCc2cccc(F)c2)nc2ccsc2c1=O | inactive: -44.5% |
| Cc1cccc(C)c1NC(=O)CSc1nccn1C | inactive: -6.2% |
| CCOc1ccc(CNC(=O)c2cccc(Nc3nc4ccccc4n4nnnc34)c2)cc1OC | inactive: -9.41% |
| Cc1ccc(C)c(CN2C(=O)c3ccccc3S(=O)(=O)c3ccc(C(=O)N4CCN(Cc5ccccc5)CC4)cc32)c1 | inactive: -17.4% |
| CCOc1ccc(NC(=O)c2oc3ccccc3c2NC(=O)C(C)Oc2ccccc2)cc1 (stereo not drawn) | inactive: 1.32% |
| Cc1ccc(C)c(C(=O)N2CCC(c3nc4c(nnn4Cc4ccccc4)c(=O)[nH]3)CC2)c1 | inactive: -13.1% |
| COc1ccccc1C1=Nn2c(nc3sc(C(=O)Nc4ccccc4Cl)c(C)c3c2=O)SC1 | inactive: 5.09% |
| CCOCCCn1c(SCC(=O)Nc2ccccc2OC)nc2c(oc3ccccc32)c1=O | inactive: -14% |
| CCOc1ccccc1N1CC(c2nc3ccccc3n2CCCCOc2ccccc2)CC1=O (stereo not drawn) | inactive: -5.04% |
| S=c1[nH]c2ccccc2s1 | inactive: -14.8% [at 114 µM] |
| CC(NC(=O)c1c(O)nc2ccccn2c1=O)c1ccccc1 (stereo not drawn) | inactive: 4.37% |
| COc1ccc(-c2cn3c(n2)sc2cc(C(=O)NCc4ccccc4)ccc23)cc1 | inactive: -10.8% |
| Cc1ccc(CNc2c(C)c(C)nc3nncn23)cc1 | inactive: -1.18% |
| COc1ccc(OC)c(C2CC(=O)Nc3ccc4ccccc4c32)c1 (stereo not drawn) | inactive: -25.4% |
| CCN(C(=O)CCS(=O)(=O)c1cc(Br)cc2c1N(C(=O)C1CC1)CC2)c1cccc(C)c1 | inactive: -17.9% |
| COc1ccc(Cc2nc3ccc(C(=O)NCCc4ccc(Cl)cc4)cc3o2)cc1 | inactive: -17.3% |
| O=C(NCC(c1ccc2c(c1)OCO2)N1CCOCC1)c1ccc(F)cc1 (stereo not drawn) | inactive: -13.2% |
| CCCC(=O)N(c1ccc2oc(-c3ccccc3)c(C(=O)OCC)c2c1)S(=O)(=O)c1ccc(C)cc1 | inactive: -22.8% |
| COCCCNC(=O)Cn1c(=O)n(CCCC(=O)NCc2ccc(C)cc2)c(=O)c2ccccc21 | inactive: -10.2% |
| CCCCN1CC(c2nc3ccccc3n2CCCCOc2c(C)cccc2C)CC1=O (stereo not drawn) | inactive: -57.6% |
| CC1=C(c2ccc(C)c(C)c2)S(=O)(=O)N=C1N1CCN(c2cccc(C(F)(F)F)c2)CC1 | inactive: -0.593% |
| CCOc1ccc(-n2c(=O)c3c4c(sc3n(Cc3cccc(Cl)c3)c2=O)CCCC4)cc1 | inactive: -10% |
| Cc1ccc(NC(=O)Cn2c(=O)n(-c3ccc(CC(=O)NCC4CCCO4)cc3)c(=O)c3ccccc32)cc1 (stereo not drawn) | inactive: -4.78% |

| SMILES | activation |
| --- | --- |
| CCn1cc(C(=O)N2CCN(c3ccccc3OC)CC2)c(=O)c2cc(S(=O)(=O)N3CCCCC3)ccc21 | inactive: -6.51% |
| COc1ccc(-c2nn(-c3ccccc3)cc2C(=O)Nc2ccccc2OC)cc1 | inactive: -7% |
| Cc1cccc(C(=O)Nc2ccccc2-c2nc(-c3ccccc3)no2)c1 | inactive: -1.85% |
| CC(C)CN(c1ccccc1)S(=O)(=O)c1nnc(NC(=O)c2ccco2)s1 | inactive: -37.5% |
| CCOc1ccc(Sc2cc(C(=O)NCCc3ccc(OC)c(OC)c3)c3ccccc3n2)cc1 | inactive: -14.3% |
| CCn1c(=O)c2cc(C(=O)N(C)c3cc(C)ccc3C)sc2c2ccccc21 | inactive: -27.6% |
| O=C(O)c1cccc(NC(=O)c2cccc(S(=O)(=O)Nc3cccc(C(=O)O)c3)c2)c1 | inactive: -14.7% |
| CC(C)c1ccc(Nc2nc3ccc(C(=O)c4ccccc4)cc3n3cnnc23)cc1 | inactive: -28.1% |
| Cn1cc(C(=O)NCc2ccc(F)cc2)c(=O)c2cc(S(=O)(=O)N3CCCCC3)ccc21 | inactive: -12.6% |
| O=C(CCSCc1ccccc1F)N1CCN(c2ccc(F)cc2)CC1 | inactive: -8.72% |
| COc1ccc(NC(=O)N2CCc3c(sc4c3CCCC4)C2c2ccc(F)cc2)cc1 (stereo not drawn) | inactive: -9.3% |
| COc1cc(OC)c(NC(=O)c2oc3ccc4c(c3c2C)C(=O)CC(C)(C)O4)cc1Cl | inactive: -11.4% |
| COc1ccc(NC(=O)c2ccc3snnc3c2)cc1OC | inactive: -15.2% |
| COc1cc(OC)cc(-n2c(=O)[nH]c3cc(C(=O)NCCc4ccc(C)cc4)ccc3c2=O)c1 | inactive: -17.2% |
| CN(C)C(=O)c1ccc(S(=O)(=O)NCc2ccccc2Cl)s1 | inactive: -12.2% |
| CCN(C(=O)c1sc2nc3n(c(=O)c2c1C)CCCCC3)c1ccccc1F | inactive: -13.1% |
| CCc1ccc(CNC(=O)c2cc3c(=O)oc4ccc(C)cc4c3s2)cc1 | inactive: -2.24% |
| Cc1ccc(NC(=O)Nc2nnc(N3CCCCC3)s2)c(C)c1 | inactive: -3.5% |
| COc1ccc(-n2cc3c(c2-c2cccc(Br)c2)c(=O)n(C)c(=O)n3C)cc1OC | inactive: -15.4% |
| COc1cccc(NC(=O)Cn2c(=O)n(Cc3ccccc3)c(=O)c3c4c(sc32)CN(C(C)=O)CC4)c1 | inactive: -11.9% |
| COc1ccc(-c2cc(C(F)(F)F)nc(SCC(=O)NCc3ccc(F)cc3)n2)cc1 | inactive: -12.3% |
| Cc1cc(C)cc(C(=O)Nc2ccc(-c3cn4cccnc4n3)cc2)c1 | inactive: 10.2% |
| COC(=O)c1ccccc1NC(=O)c1nc(SCc2ccccc2C)ncc1Cl | inactive: -16.3% |
| COc1ccc(S(=O)(=O)NC2(C(F)(F)F)NC(=O)N(CCc3ccccc3)C2=O)cc1 (stereo not drawn) | inactive: 6.83% |

From PubChem BioAssay AID1159614 (National Center for Advancing Translational Sciences (NCATS), 2016)
